Values marked as one replicate rest on one cluster of the flow cell; about a third of the high ones do not repeat.
tested on: ATP; assay: switch fluorescence ratio, 500 uM ATP over buffer (Cy3 cluster intensity, sum of 5 cycles each) (fold (ratio)); higher = stronger signal-on switching upon ATP binding; sequences stand for … in TCGTCGGCAGCGTCAGATGTGTATAAGAGACAGTTTTTTTTTTTTTTTTTTTTTTTTT…TC; conditions: aptamer strand: ATP DNA aptamer (quencher-CACCTGGGGGAGTATTGCGGAGGAAGG + anchor), 100 nM annealed; ATP concentration: 500 uM; one replicate
Outline: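 After annealing to 100 nM quencher-labelled ATP aptamer, Cy3-labelled switching-strand clusters on a modified Illumina MiSeq flow-cell were imaged in selection buffer. A second image followed after 15 min with 500 uM ATP at 22 °C, and five such buffer/ATP cycles were done, each separated by NaOH stripping and re-annealing. The fluorescence ratio, averaged per switch-domain sequence, is summed target-cycle over summed buffer-cycle Cy3 intensity per cluster, with clusters outside 100-1000 RFU excluded.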
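Note: ATP exposure 15 min at 22 °C before imaging.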

Sequence	switch fluorescence ratio
GGATGAGGTA	0.988
CGCTGGCCTA	0.934
GAGGGGGTTA	0.959
GGTTTAGACC	0.98
GTAGGCCGCT	1
TAGCGTTCAC	0.999
CGTATATTCG	1.07
TGAGGCAGAC	1.38
CAGATCCTTG	1.01
GATTTGAACC	1.02
TAGAGTCAGC	0.979
CTTAACCGCA	1.95
AATGGTTATG	1.03
TAACACGCGC	1.04
ACCCAGGACG	1.33
TCCCACCCTT	1.99
GAGACCGTCA	0.969
AGCGGTGTCT	0.918
CTGAAACGCT	1.15
ACGAGGTATG	0.851
CCCGGTTGCA	1.1
TAATCGCGAT	0.974
CCAGTAACT	1.03

Sequence	switch fluorescence ratio
GTCGAACTTG	0.93
GAGGCGTACA	1.02
AATGGGCTCT	0.98
CATTTACCTC	1.07
CCGCTGAGGA	1.23
ATCTGACATT	1.03
TTAGCTTGA	0.973
CACGATATCA	1.04
ACTTTAGTT	0.975
ACGGAACCG	1.1
TTGGGCCAAA	1.01
GCACTGTACG	1.69
ATTCTAATGC	1.03
TTGGTAAGCC	0.937
GGCGGTGCCA	1.01
GACCGGGGGC	1.06
CGTGTAGCGT	0.991
CCGCTGTCGC	2.12
GGGATCCACG	1.01
ATGTCCCTCC	1.1
ATTTAAACAC	0.979
CTGCGGGACA	1.03
TCGCGGCCGT	1.03

Sequence	switch fluorescence ratio
GTAACTTATG	0.973
TTATAGCGAG	1.04
GTCCGGCACA	1.09
ACATCTCATC	1
TTCGTGGCAT	1.01
GTCTGAACGC	1.2
GTCTGGGTGG	0.977
CAGAAGCTCG	1.02
TAAAATCGTT	0.989
GCGTGATTAG	1.07
CCTAAGTTCG	0.999
TGCTAGGTCG	1.01
TCAGTAACGG	0.99
AGCTAGATCA	0.951
CGGGGCAGGA	0.999
TGAAGATTAA	0.979
ATGACCAATT	0.997
TGAGTTAAA	1.01
GTTCTTAGAC	0.954
TTCCAATTAA	1.02
TTGGCCAGGA	1.01
GAACCGAATT	1.05
GCGGAAGCGT	1.02

Sequence	switch fluorescence ratio
AGCGCGGCGT	0.976
GTGCAATGCG	1.85
CAGGTATGCA	1
ATCTGACTCG	1.28
AAACACACAG	1.12
TGGGTTGGGC	0.975
GTAATTGAAT	1.01
AATTGGCGTC	1.01
TCACTTGGGA	0.997
GTTAGAGCCA	1.02
GTGGTAAGAA	0.96
AGGAATATGT	0.97
CGGGGCCGAC	0.975
GCATCTTTCC	1.25
TTACGTACG	1.38
TAACACTTT	0.994
AGGTCTGACA	0.985
TAATTATAAC	0.981
TGACCAGCTG	1
CGATGGACGT	0.987
CATCGAAGTC	1.03
GATTCAGCCG	0.995
GAGCGTAAAA	0.983

Sequence	switch fluorescence ratio
TGCAACTCTG	0.955
GAGGGGGCAG	1.01
GGCTTCTGG	0.996
CGCGCTAGAA	1.08
GCCAGCAGTG	1.08
CTATCGAATT	0.957
AGCGAGTTGT	1.03
TACTTTATGC	1.14
TAGATACTTA	1.04
GACCAAGTT	1.02
TTTTGGCAAA	0.948
AAGTACGAGC	1.2
GGCCTGTGGC	0.978
CGAAGGGTTG	0.964
TATGATTGAT	0.994
AGAATTCGAA	1.02
GGGGTGATAC	1.13
AAGATCTTTG	0.98
GCTGAGGAGT	1
TACTTGTTCC	1.06
ACTCGGATGT	1.08
ACGAGTTTAG	1.01
TAAACCAGAC	2.13

Sequence	switch fluorescence ratio
CGGGCCAACG	0.948
TCCAACGGAA	1.32
TGGAGAGCAT	1
CGATCGGCGC	1.04
CATAATATGG	0.994
ATGACTACTG	1.07
GCCGGAATGG	1.16
ACACTGCACC	1.43
TTTATCCAA	1.04
GAGTTTGATG	1.01
TACAAAGCGC	1.03
CTTGTTGGTA	1.03
TCTCCGAGGA	1.27
CTCGATGAAG	0.998
ATAAATATAA	0.992
ATGCCGTTGT	1.03
AGGTCGATAC	1.97
TGGAAATATC	1.02
GATAATGTTA	1.02
TACGACTCAA	5.48
TGTATCCTGT	0.972
GCAGTCGTTT	1.06
GTGTCATTGG	0.985

Sequence	switch fluorescence ratio
AGAGGGCCAG	0.988
ACCCTTAGCT	1.05
GATGACGTAC	1.93
GGGCGCTTAT	1.04
CAACACCATT	0.992
AAGAACTTGG	1
CGTTAAGGGG	1.01
TTCTTGAGAC	1.04
ACGTAAGATC	1.13
ATGGGAATTA	1.01
TCGCGCTTCC	2.07
GGGAGTCATT	0.982
AACTTGGACG	0.982
GCGGGGGA	0.99
GTGTCCCCGA	0.993
ATCCGATAAC	2.05
GAAGAAATTC	1.1
TGAGACGCGA	1.23
TAGGCTTCGT	1.05
